# Reference: the BET-seq Pho4 binding data (Le et al. 2018)
# The other results are listed elsewhere or left out. Values were computed here from the reads of four pooled replicates and scatter widely.
# Molecular target: T1, Pho4 (S. cerevisiae) (UniProt P07270)
# T1 sequence: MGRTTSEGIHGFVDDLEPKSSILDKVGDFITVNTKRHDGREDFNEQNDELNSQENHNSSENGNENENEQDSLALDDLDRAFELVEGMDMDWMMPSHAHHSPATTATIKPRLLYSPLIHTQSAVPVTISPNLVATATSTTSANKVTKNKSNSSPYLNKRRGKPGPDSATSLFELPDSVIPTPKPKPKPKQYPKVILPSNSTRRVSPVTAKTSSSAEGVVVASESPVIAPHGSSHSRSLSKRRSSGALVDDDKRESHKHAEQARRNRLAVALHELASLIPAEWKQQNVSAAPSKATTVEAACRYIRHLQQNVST
# Assay: relative binding free energy (BET-seq); higher = weaker binding
# Conditions: reference: library average
row,Sequence,relative binding free energy [kcal/mol]
1,CGTGGCACGTGAGTGA,0.06
2,TTATGCACGTGAGTAG,0.29
3,TGGTACACGTGAGCGA,0.27
4,TGTCACACGTGTGGTC,0.12
5,GGTTACACGTGGTATT,0.02
6,GGAAGCACGTGGGGCT,-0.22
7,GTTTGCACGTGTTCGT,0.15
8,CAGGTCACGTGTGTGC,0.03
9,CTTTACACGTGGGTAT,-0.05
10,GGGGTCACGTGGAGTT,0.25
11,GTTTCCACGTGCTGTG,0.09
12,TGGGGCACGTGTGTTA,-0.04
13,GAGATCACGTGAGTGT,0.26
14,TGTGTCACGTGTTAGA,0.07
15,GATGGCACGTGTCGTT,-0.04
16,TGCCTCACGTGGGTGA,0.06
17,ATTATCACGTGCGGGA,0.13
18,CTTGGCACGTGGAGGC,-0.02
19,AGACGCACGTGTCGTG,-0.05
20,GATATCACGTGGCTTG,0.13
21,GGTTCCACGTGAGAGT,0.42
22,GGGACCACGTGAGGTT,0.21
23,AGTGACACGTGGTTAG,-0.12

row,Sequence,relative binding free energy [kcal/mol]
1,TAATACACGTGGGCGT,-0.22
2,GTTTGCACGTGATAAT,0.18
3,TAAGCCACGTGATGGT,0.1
4,ATTTGCACGTGGTTCT,-0.09
5,GTGATCACGTGTGTTT,0.24
6,GGGGTCACGTGCTGAT,0.05
7,TATAGCACGTGATGGA,0.11
8,GAGATCACGTGTATTG,0.14
9,GCTTACACGTGGGTGT,0.08
10,TGAGACACGTGTATTG,-0.11
11,AAGGGCACGTGCTTTG,-0.07
12,TTGCTCACGTGTTTTG,0.09
13,TATGTCACGTGAGAGC,0.27
14,TAAATCACGTGTAAAT,0.3
15,TGAGCCACGTGTGTTG,-0.03
16,GTTGACACGTGTATTA,0.19
17,GTGGCCACGTGTTAGT,0.06
18,GATATCACGTGGGGCT,0.02
19,GAGGGCACGTGTTGTA,0
20,AGTTGCACGTGCTGGC,-0.07
21,CATGGCACGTGCTGGG,-0.17
22,ATGCACACGTGGCGTG,-0.06
23,TCGTGCACGTGCGCGT,-0.02

row,Sequence,relative binding free energy [kcal/mol]
1,AGTGTCACGTGAAGCA,0.35
2,GTTTACACGTGCGTAG,0.07
3,TGGTTCACGTGACAGA,0.32
4,ATTGTCACGTGCTTTT,0.05
5,TATTACACGTGATATA,0.12
6,TGGTCCACGTGGGAGT,-0.01
7,TTATTCACGTGACGGA,0.22
8,TGATGCACGTGTGATT,0.09
9,TGTGACACGTGAAAGC,0.36
10,GGCGGCACGTGGATTA,0.17
11,GTGAACACGTGGGAGC,-0.06
12,TCGCGCACGTGAAGGG,0.12
13,GCTCGCACGTGTGGAG,0.09
14,CGGGGCACGTGAGGGG,0.19
15,GTGTGCACGTGAGGTA,0.14
16,CTCGGCACGTGTCGGG,-0.01
17,ATTATCACGTGATCTT,0.18
18,GAGTGCACGTGTTATA,0
19,CCGGGCACGTGGTGTG,-0.27
20,TCAGCCACGTGGGGTG,-0.24
21,ATGTACACGTGAAGTA,0.19
22,GTGAGCACGTGCAGTT,-0.12
23,GGATGCACGTGTGGCT,0.02

row,Sequence,relative binding free energy [kcal/mol]
1,GATGGCACGTGTGAAT,0.16
2,GGGGGCACGTGTCGGC,-0.11
3,GTTGGCACGTGGTCGG,-0.13
4,TGGTGCACGTGTGGTA,0.03
5,CGGGGCACGTGTCAGT,-0.1
6,TCGGGCACGTGGCCGG,-0.11
7,GCGAGCACGTGTTGTT,-0.18
8,TTGGACACGTGGAATG,0.12
9,AAGGGCACGTGATCTT,-0.08
10,TTATGCACGTGATTGA,0.04
11,TTGATCACGTGACTTG,0.24
12,GGTTACACGTGAATTG,0.28
13,GTGCGCACGTGTCTGG,-0.15
14,TATAGCACGTGTCGAT,0.05
15,TGTTACACGTGTGGAA,0.26
16,TAATGCACGTGAGTAT,0.13
17,AAATGCACGTGGTGTC,-0.05
18,GATAGCACGTGGGGTT,-0.01
19,AGGGGCACGTGGGGCC,-0.23
20,ATTAACACGTGTGATT,0.06
21,TTCTTCACGTGTAGGG,0.32
22,CTGGGCACGTGGTTGT,-0.09
23,AGGGACACGTGGTTAT,0.18

row,Sequence,relative binding free energy [kcal/mol]
1,TAGTTCACGTGAGATT,0.51
2,AGTGCCACGTGGGCTG,-0.32
3,TGTTGCACGTGACATG,0.11
4,TTAAGCACGTGTGAGA,-0.04
5,GAACGCACGTGTTGGG,-0.03
6,GTTTTCACGTGCGTTG,0.31
7,TGAGGCACGTGGCCGT,-0.25
8,TTCGTCACGTGGCTGG,0.14
9,TGTGGCACGTGTCTCT,-0.15
10,AGGGGCACGTGTTACT,-0.07
11,ATGGGCACGTGTGTTT,-0.05
12,GTTGGCACGTGCTTGA,-0.16
13,GGGGACACGTGATCGT,0.05
14,TAACGCACGTGTGCGG,-0.03
15,GTTTTCACGTGGATAG,0.3
16,TGGTACACGTGCGTTG,0.03
17,TTGTACACGTGAAATT,0.36
18,ATAGTCACGTGAGAGG,0.29
19,GGAAGCACGTGCTGGT,-0.06
20,GCGTGCACGTGAGCGG,0.06
21,TGGCGCACGTGGGCGG,-0.19
22,GAGGTCACGTGTTGTG,0.14
23,TCGTGCACGTGCAGTG,-0.16
